The whole screen tested about 350,000 compounds, of which about 31,000 (8.9%) were called active. Inconclusive means that the source gave no clear call. Such entries were picked first, then a sample of the others. Calls come from the whole dose curve; as a rule, active = well fitted inhibition curve with a large enough effect; inconclusive = small, poorly fitted or top-dose-only effect; inactive = no such curve, though single readings can be large or run the other way. Where the call is inconclusive, the potency comes from a doubtful curve fit.
These compounds were tested against Histone-lysine N-methyltransferase EHMT2 (Homo sapiens) (UniProt Q96KQ7) (assay: qHTS Assay for Inhibitors of Histone Lysine Methyltransferase G9a). Settings: G9a H3K9 monomethylation, AlphaScreen, 2 h; activity, negative = inhibition: at 59 µM (top of the series) unless noted.
Sequence of UniProt Q96KQ7 (Q96KQ7 whole entry, looked up): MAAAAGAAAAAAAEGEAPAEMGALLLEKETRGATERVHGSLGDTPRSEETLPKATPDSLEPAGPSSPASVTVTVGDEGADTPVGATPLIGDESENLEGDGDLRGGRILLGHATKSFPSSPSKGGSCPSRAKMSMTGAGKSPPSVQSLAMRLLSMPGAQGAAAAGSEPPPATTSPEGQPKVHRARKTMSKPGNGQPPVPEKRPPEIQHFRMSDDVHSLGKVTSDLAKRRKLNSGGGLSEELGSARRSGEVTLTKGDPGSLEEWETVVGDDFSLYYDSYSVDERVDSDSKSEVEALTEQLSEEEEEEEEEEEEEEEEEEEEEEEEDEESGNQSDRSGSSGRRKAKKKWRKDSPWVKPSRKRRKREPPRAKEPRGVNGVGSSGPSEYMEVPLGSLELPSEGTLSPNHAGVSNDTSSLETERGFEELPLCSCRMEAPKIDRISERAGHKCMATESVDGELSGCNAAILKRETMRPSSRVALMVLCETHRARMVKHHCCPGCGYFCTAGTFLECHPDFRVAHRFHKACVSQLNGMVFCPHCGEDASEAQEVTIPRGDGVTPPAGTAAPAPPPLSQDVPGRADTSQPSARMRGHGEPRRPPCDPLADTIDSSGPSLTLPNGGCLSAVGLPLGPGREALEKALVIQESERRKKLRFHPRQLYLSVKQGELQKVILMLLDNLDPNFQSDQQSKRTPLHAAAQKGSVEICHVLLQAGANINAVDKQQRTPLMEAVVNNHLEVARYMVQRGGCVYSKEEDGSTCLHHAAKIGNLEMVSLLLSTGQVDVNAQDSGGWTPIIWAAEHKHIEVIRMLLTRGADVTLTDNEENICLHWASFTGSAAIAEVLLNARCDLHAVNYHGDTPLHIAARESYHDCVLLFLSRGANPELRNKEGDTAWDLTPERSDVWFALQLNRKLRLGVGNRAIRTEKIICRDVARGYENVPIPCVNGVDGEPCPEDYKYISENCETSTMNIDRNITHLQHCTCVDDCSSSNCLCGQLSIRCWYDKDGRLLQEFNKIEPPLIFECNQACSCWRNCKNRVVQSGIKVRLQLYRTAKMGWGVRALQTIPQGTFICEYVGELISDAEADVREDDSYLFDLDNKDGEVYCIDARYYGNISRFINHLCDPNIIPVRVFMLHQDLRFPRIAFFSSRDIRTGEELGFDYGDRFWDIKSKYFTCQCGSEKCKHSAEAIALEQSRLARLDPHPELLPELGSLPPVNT
Procedure, shortened: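 Methyltransferase reactions run at room temperature for 2 h (20 nM enzyme, 500 nM biotin-H3K9 peptide, 20 uM SAM) after a 15 min compound preincubation; product detected by AlphaScreen beads and anti-H3K9me1 antibody.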
In the case of `CC(NC(=O)c1ccc(F)cc1)c1nc2ccccc2[nH]1` (stereo not given), the Potency is reported as “inactive”.
In the case of `c1ccc(-c2ccc(C3=Nn4c(nnc4-c4cccs4)SC3)cc2)cc1`, the Potency is reported as inconclusive: 28.2 µM [inhibitor, full curve].
With `CCc1ccc(NC(=O)Cn2c(=O)n(-c3cc(OC)c(OC)c(OC)c3)c(=O)c3ccccc32)cc1` the Potency was “inactive”.
For `Nn1c(Cc2ccccc2F)nnc1SCn1nnc2ccccc2c1=O`, the Potency was active: 25.1 µM.
`Cc1cccc(N2CCN(C(=O)c3noc4c3CCCCC4)CC2)c1C` was tested, and the Potency was “inactive”.
For `O=C(NCCc1ccccc1)C1CCC(CNS(=O)(=O)c2cccs2)CC1` (stereo not given), the Potency was “inactive”.
With `Cc1ccc(NC(=S)NC(=O)/C=C/c2ccco2)c(O)c1` the Potency was inconclusive: 39.8 µM [inhibitor, partial curve].
`Cc1ccc(S(=O)(=O)N(C)CC(=O)Nc2nc3ccccc3s2)cc1` was tested, and the activity, negative = inhibition was inactive: -31.8% [at 12.7 µM].
For `c1cc2c(c(NCc3ccncc3)c1)CCCC2`, the Potency was inconclusive: 0.891 µM [inhibitor, full curve, poor fit].
With `NC(=O)NC1CCCc2c1[nH]c1ccc(Cl)cc21` (stereo not given) the Potency was inconclusive: 31.6 µM [inhibitor, single point].
For `CN(C)S(=O)(=O)c1cc(NC(=O)COC(=O)C2COc3ccccc3O2)ccc1Cl` (stereo not given), the Potency was inconclusive: 39.8 µM [inhibitor, partial curve, poor fit].
For `Cc1cc(C(=O)CN2C(=O)C(=O)N(Cc3ccccc3)C2=O)c(C)n1CC1COc2ccccc2O1` (stereo not given), the Potency was “inactive”.
With `COc1ccc(/C=C2/NC(=O)CNC2=O)cc1` the Potency was inconclusive: 0.794 µM [inhibitor, partial curve, poor fit].
`S=C(Nc1ccc2c(c1)OCCO2)Nc1ccccc1Cl` was tested, and the Potency was active: 79.4 µM.
With `O=C(CSc1ccc(F)cc1)NCCSc1ccccc1` the Potency was “inactive”.
`CN(C)S(=O)(=O)N1CCN(c2ccc([N+](=O)[O-])c(N3CCCCC3)c2)CC1` was tested, and the Potency was inconclusive: 44.7 µM [inhibitor, partial curve].
In the case of `NC(=O)CSc1oc(-c2cccs2)nc1S(=O)(=O)c1ccccc1`, the activity, negative = inhibition is reported as inconclusive: -61.1% [inhibitor].
For `Cc1ccccc1NC(=O)Cc1nc(COC(=O)c2cccc([N+](=O)[O-])c2)cs1`, the Potency was inconclusive: 39.8 µM [inhibitor, partial curve, poor fit].
In the case of `CCc1ccc(NC(=O)C(C)OC(=O)c2ccc(NS(=O)(=O)c3ccc(C)c([N+](=O)[O-])c3)cc2)cc1` (stereo not given), the Potency is reported as inconclusive: 39.8 µM [inhibitor, single point].
With `COc1ccc(NC(=O)C2C3C=CC(O3)C2C(=O)NCc2cccnc2)cc1` (stereo not given) the Potency was inconclusive: 79.4 µM [inhibitor, partial curve, poor fit].
`O=C(O)CC1Sc2nnc(COc3ccc(Cl)cc3)n2N=C1c1ccccc1` (stereo not given) was tested, and the Potency was active: 25.1 µM.
With `Cc1ccc(OCC(=O)Nc2ccc([N+](=O)[O-])cc2)cc1` the Potency was “inactive”.
In the case of `Cc1ccc(S(=O)(=O)N2CCN(C(=O)CSc3n[nH]c(N)n3)CC2)c(C)c1`, the Potency is reported as inconclusive: 39.8 µM [inhibitor, single point].
In the case of `C=CCn1c(SCC(=O)N(C(C)CC)C2CCS(=O)(=O)C2)nc2ccccc2c1=O` (stereo not given), the Potency is reported as inconclusive: 50.1 µM [inhibitor, partial curve].
`CCN(CC(=O)Nc1ccc2c(c1)OCCO2)CC(=O)Nc1cc(C)on1` was tested, and the Potency was inconclusive: 22.4 µM [inhibitor, single point].
`O=C(Nc1ccc(N2CCOCC2)cc1)Nc1ccc(Cl)c(Cl)c1` was tested, and the Potency was active: 7.08 µM.
For `Cc1ccc(C2C(C=Nc3c(C)n(C)n(-c4ccccc4)c3=O)=C(c3ccccc3)Oc3ccccc32)cc1` (stereo not given), the Potency was inconclusive: 70.8 µM [inhibitor, single point].
With `COc1ccc(/C=N/NC(=O)c2[nH]nc3c2CCc2ccccc2-3)cc1OC` the Potency was inconclusive: 79.4 µM [inhibitor, single point].
With `CC(C)=C(NC(=O)c1ccccc1)C(=O)N/N=C/c1ccc(O)cc1` the Potency was inconclusive: 39.8 µM [inhibitor, single point].
`CSc1nnc2c3c4c(sc3nc(-n3nc(C)cc3C)n12)COC(C)(C)C4` was tested, and the Potency was “inactive”.
`O=C(CN1C(=O)COc2ccc(S(=O)(=O)N3CCCCCC3)cc21)N1CCN(c2ccccc2F)CC1` was tested, and the Potency was inconclusive: 39.8 µM [inhibitor, partial curve, poor fit].
For `CN1C(C(=O)NCC2CC2)CC2Cn3c(nc4ccccc43)C21` (stereo not given), the activity, negative = inhibition was inactive: 2.03% [at 2.33 µM].
`N#Cc1cc(N)ccc1-n1cccc1` was tested, and the Potency was inconclusive: 70.8 µM [inhibitor, partial curve, poor fit].
For `O=C(c1ccc2c(Cl)c3c(nc2c1)CCCC3)N1CCN(c2cccc(C(F)(F)F)c2)CC1`, the Potency was inconclusive: 1 µM [inhibitor, partial curve, poor fit].
For `Cc1cc(C)nc(-n2nc(C)c(Sc3ccc(F)cc3)c2N)n1`, the Potency was active: 50.1 µM.
`CCN(c1ccccc1)c1nnc(NC(=O)Nc2ccc(Br)c(C)c2)s1` was tested, and the Potency was inconclusive: 39.8 µM [inhibitor, partial curve, poor fit].
In the case of `CCOC(=O)C1CCCN(C(=O)Cn2sc3nc(C)cc(C)c3c2=O)C1` (stereo not given), the Potency is reported as active: 1.58 µM.
`O=C(CSc1nccn1Cc1ccco1)Nc1cc(C(F)(F)F)ccc1Cl` was tested, and the Potency was inconclusive: 39.8 µM [inhibitor, single point].
`O=C1CN(C(=O)CNCc2ccc(Cl)cc2)c2ccccc2N1` was tested, and the Potency was active: 25.1 µM.
`O=c1[nH]c(-c2ccc(O)cc2)nc2scc(-c3cccs3)c12` was tested, and the Potency was “inactive”.
`O=c1/c(=C\c2ccc(O)cc2)sc2n1C(c1ccccc1)C(c1ccccc1)=NN=2` (stereo not given) was tested, and the Potency was active: 44.7 µM.
With `COc1cc(O)c(C(CC(=O)N2CCN(c3ccccc3)CC2)c2ccc(N(C)C)cc2)c(OC)c1` (stereo not given) the Potency was inconclusive: 28.2 µM [inhibitor, single point].
For `CCNc1nc(NCC)nc(N/N=C/c2ccccc2)n1`, the Potency was “inactive”.
For `COc1cc(OC)c(NC(=O)C2CCN(S(=O)(=O)c3ccc4c(c3)oc(=O)n4C)CC2)cc1Cl`, the Potency was “inactive”.
With `CCn1c(CNC(=O)COC)nc2ccccc21` the Potency was inconclusive: 39.8 µM [inhibitor, partial curve, poor fit].
With `CC(=O)c1sc(N/N=C\c2ccccc2O)nc1C` the activity, negative = inhibition was inactive: 44.8% [at 12.7 µM].
For `CCc1c(C)nc(SCC(=O)c2ccc(C)c(C)c2)[nH]c1=O`, the activity, negative = inhibition was inactive: 8.01% [at 12.7 µM].
With `CC(C)OC(=O)c1cc(NC(=O)C2C3C=CC(O3)C2C(=O)O)cc(C(=O)OC(C)C)c1` (stereo not given) the Potency was active: 50.1 µM.
`COCCN1CCC(CNCc2c(C(=O)N3CCCCC3)nc3c(C)cccn23)C1` (stereo not given) was tested, and the Potency was inconclusive: 44.7 µM [inhibitor, partial curve, poor fit].
For `COc1cc(CN(C)CC(=O)c2[nH]c(C)c(C(C)=O)c2C)ccc1OC(F)F`, the Potency was inconclusive: 10 µM [inhibitor, partial curve, poor fit].
In the case of `COc1ccc(N2CCN(C(=O)c3cc4c(-c5ccc(Cl)cc5)nn(C)c4s3)CC2)cc1`, the Potency is reported as active: 35.5 µM.
`CC(C)(C)N1CSC(=S)N(Cc2ccccc2)C1` was tested, and the Potency was inconclusive: 10 µM [inhibitor, partial curve, poor fit].
With `CNCC/C=C1/c2ccccc2CSc2ccccc21` the Potency was inconclusive: 39.8 µM [inhibitor, single point].
`Clc1ccc(-c2nnc(SCc3nc4ccccc4[nH]3)o2)c(Cl)c1` was tested, and the Potency was active: 8.91 µM.
With `CC(=O)OC1C2CCC1C([N+]1(C)CCCCC1)CC2` (stereo not given) the Potency was active: 31.6 µM.
For `CC(=O)NCCc1nc2cc(NS(=O)(=O)c3ccccc3)ccc2n1C`, the Potency was “inactive”.
With `CC(C)C(=O)NC(=S)NCC(=O)c1ccccc1` the Potency was inconclusive: 79.4 µM [inhibitor, single point].
`CCOc1cc(/C=N/O)ccc1OCc1ccc([N+](=O)[O-])cc1` was tested, and the Potency was “inactive”.
In the case of `COc1ccc(S(=O)(=O)N(CCCN2CCOCC2)Cc2ccc(OC)c(OC)c2)cc1`, the Potency is reported as inconclusive: 79.4 µM [inhibitor, partial curve, poor fit].
With `CC(NC(=O)CSc1nc2ccccc2c(=O)[nH]1)c1ccccc1` (stereo not given) the Potency was inconclusive: 25.1 µM [inhibitor, single point].
For `Cc1cc(C)n(-c2nc3ccccc3s2)n1`, the Potency was “inactive”.
In the case of `O=C(COc1ccc(Oc2ccccc2)cc1)NCc1cn2ccccc2n1`, the Potency is reported as inconclusive: 79.4 µM [inhibitor, single point].
In the case of `Cc1cc(/C=C2/NC(=O)N(Cc3ccccc3F)C2=O)c(C)n1C`, the Potency is reported as inconclusive: 89.1 µM [inhibitor, single point].
`O=C(N/N=C/c1ccccn1)c1cccnc1` was tested, and the Potency was inconclusive: 0.708 µM [inhibitor, full curve, poor fit].
In the case of `OCCn1c(-c2ccc3c(c2)OCO3)csc1=Nc1ccccc1`, the activity, negative = inhibition is reported as inactive: -47.4% [at 12.7 µM].
For `O=C(CSc1nccn1-c1ccc(F)cc1)NCc1ccc2c(c1)OCO2`, the Potency was inconclusive: 79.4 µM [inhibitor, partial curve, poor fit].
In the case of `COc1ccc(Cc2nc(-c3ccc(NC(=O)c4cccnc4)cc3)no2)cc1`, the Potency is reported as inconclusive: 25.1 µM [inhibitor, single point].
In the case of `O=C(c1cc(-c2cccs2)nc2ccccc12)N1CCN(c2ccccc2)CC1`, the Potency is reported as inconclusive: 35.5 µM [inhibitor, full curve, poor fit].
With `CCOC(=O)CN(C)Cc1cn(C)nc1-c1ccc(Oc2ccccc2)cc1` the Potency was inconclusive: 89.1 µM [inhibitor, single point].
With `Cc1ccc2nsnc2c1S(=O)(=O)N(Cc1ccco1)Cc1cc2ccc(C)c(C)c2[nH]c1=O` the Potency was inconclusive: 79.4 µM [inhibitor, partial curve, poor fit].

From PubChem BioAssay AID504332 (National Center for Advancing Translational Sciences (NCATS), 2011)
% is set by controls: 0 for no effect and ±100 for the full control effect; potency is the fitted concentration of half-maximal effect; tags give direction and shape of the fitted curve.
Note: nearly all actives have a fitted effect of over 75% in size.
